# Data from PubChem BioAssay AID1671194 (National Center for Advancing Translational Sciences (NCATS), 2021).
# Among all 140,000 compounds or so, about 240 (0.17%) were called active. Inconclusive results, whose numbers are uncertain, are shown with a selection of clear calls. Calls come from the whole dose curve; as a rule, active = well fitted inhibition curve with a large enough effect; inconclusive = small, poorly fitted or top-dose-only effect; inactive = no such curve, though single readings can be large or run the other way. Potencies beside an inconclusive call are fits to weak or partial responses and may not hold up.
# Test: Primary qHTS assay for inhibitors of alpha-synuclein gene (SNCA) expression; note: nearly all actives have a fitted effect of over 45% in size
# Settings: HEK-293 SNCA-luciferase knock-in, luminescence, 24 h; series mostly up to 57.2 µM
# Potency is the fitted concentration of half-maximal effect; tags give direction and shape of the fitted curve.
row,Structure (SMILES),Potency
1,Cc1ccc(NC(=O)CN2C(=O)NC(c3ccccc3Cl)C3=C2COC3=O)cc1C (stereo not drawn),inactive
2,CCOc1ccc(CC(=O)NCCc2csc3nc(-c4ccccc4F)nn23)cc1,"inconclusive: 2.24 µM [inhibitor, full curve]"
3,Cc1nc(-c2cccc(Cl)c2)n(CC(=O)Nc2cccc(C(C)C)c2)c(=O)c1CCO,"inconclusive: 22.4 µM [inhibitor, partial curve, poor fit]"
4,COc1ccc(-c2cc(C(=O)N3CCN(c4ccccc4OC)CC3)c3cc(C(C)C)ccc3n2)cc1,"inconclusive: 25.1 µM [inhibitor, single point]"
5,C[S+](=O)([O-])N1CCc2nc(-c3ccccc3)nc(-c3ccc(Cl)cc3)c2C1,inactive
6,Cc1ccccc1Nc1c(-c2ccsc2)nc2c(C)cccn12,"inconclusive: 25.1 µM [inhibitor, single point]"
7,O=C1NC2(CCN(Cc3ccc(F)cc3)CC2)COc2ccccc21,"inconclusive: 25.1 µM [inhibitor, single point]"
8,COCCNC(=O)c1cn2cc(-c3cccc(OC)c3)sc2n1,inactive
9,Cc1cccc(N(CC(=O)NC(C)c2ccccc2)S(=O)(=O)c2ccccc2)c1C (stereo not drawn),"inconclusive: 12.6 µM [inhibitor, partial curve, poor fit]"
10,CCS(=O)(=O)N1CCC[C@H](n2c(=O)n(C)c3cccnc32)C1,inactive
11,CCCCN(c1ccccc1)c1ncnc2c1cnn2-c1ccc(Cl)cc1,"inconclusive: 39.8 µM [inhibitor, single point]"
12,COc1ccc(C(=O)NCC23CCCC=C2NC(=O)CC3)cc1OC (stereo not drawn),inactive
13,c1ccc(-c2ccc3ncc(Nc4ccccn4)n3n2)cc1,inactive
14,COC(=O)[C@@H](C)NC(=O)[C@H]1CN(S(=O)(=O)c2ccccc2)CCN1C(C)=O,"inconclusive: 14.1 µM [inhibitor, partial curve, poor fit]"
15,Cc1nc(-c2cnccn2)n(CC(=O)Nc2cccc(F)c2)c(=O)c1C,"inconclusive: 39.8 µM [inhibitor, single point]"
16,CN(C)C[C@@H]1CN(c2ccncn2)C[C@H]1NC(=O)c1cccn1C,"inconclusive: 8.91 µM [inhibitor, single point]"
17,CC(C)(C)c1ccc(-c2cc(C[C@H]3CNCC[C@H]3CC(=O)O)no2)cc1,inactive
18,Cc1ccc(Cl)cc1NC(=O)/C(C#N)=C/c1c(C)n(Cc2ccccc2)c2ccccc12,"inconclusive: 2 µM [inhibitor, full curve, poor fit]"
19,Cc1ccc(-n2ncc(C(=O)NCc3cccs3)c2C2CCN(C(=O)OC(C)(C)C)CC2)cc1C,"inconclusive: 15.8 µM [inhibitor, single point]"
20,CN1CCC[C@@H]1c1cccnc1,inactive
21,COC(=O)c1cccc(NC(=S)N[C@H]2CO[C@H]3[C@@H]2OC[C@H]3OC(=O)Nc2cccc3ccccc23)c1,"inconclusive: 39.8 µM [inhibitor, single point]"
22,CC(=O)NC1CCN(c2nccc(Nc3ccc(C)cc3)n2)CC1,inactive

row,Structure (SMILES),Potency
1,Cc1ccnn1CCC(=O)N1CCOC(Cc2ccc(F)cc2)C1 (stereo not drawn),inactive
2,Cc1ccc(NC(=O)c2ccc3nc(Cc4ccccc4)oc3c2)cc1F,"inconclusive: 7.08 µM [inhibitor, single point]"
3,COc1ccccc1Nc1ncc2c(n1)CN(C(=O)c1ccnn1C)CCN2,"inconclusive: 28.2 µM [inhibitor, single point]"
4,C[C@]1(CO)[C@H]2Cc3sc(NC(=O)c4ccc(F)cc4)nc3[C@@H](CC(=O)N3CCCCC3)[C@]2(C)CC[C@H]1O,inactive
5,Cc1cccc(-c2noc(CN(C(=O)c3ccc(C)c(C)c3)C(C)C)n2)c1,"inconclusive: 25.1 µM [inhibitor, single point]"
6,COCCC1(NS(C)(=O)=O)CCN(C(=O)NCC(C)C)CC1,inactive
7,Cc1nc2cc(-c3cccc(F)c3)nn2c(C)c1CCC(=O)N1CCN(c2ccc(F)cc2)CC1,"inconclusive: 12.6 µM [inhibitor, single point]"
8,CC1(COc2cccnc2)COc2ccc(C(=O)Nc3ccc4[nH]ccc4c3)cc2N1 (stereo not drawn),"inconclusive: 8.91 µM [inhibitor, partial curve]"
9,CCCOc1ccc(OC(=O)c2sc3ncn(Cc4cccc(F)c4)c(=O)c3c2C)cc1,"inconclusive: 7.08 µM [inhibitor, single point]"
10,O=C(c1nc(-c2ccc(Cl)cc2)n2c1CCCCC2)N1CCN(c2ccc(F)cc2)CC1,"inconclusive: 39.8 µM [inhibitor, single point]"
11,COc1ccccc1N(CC(=O)NCCSCc1ccc(Cl)cc1)S(C)(=O)=O,"inconclusive: 39.8 µM [inhibitor, single point]"
12,Cc1cc(-c2ccc(C)c(S(=O)(=O)NCc3ccc(Cl)cc3)c2)on1,"inconclusive: 17.8 µM [inhibitor, partial curve, poor fit]"
13,O=C(NCc1nnc2cc(-c3nc(C4CC4)no3)ccn12)c1nccc2ccccc12,inactive
14,COC(=O)c1ccc2nc(CO[C@H]3CN(Cc4cccc(C#N)c4)C[C@H]3F)[nH]c2c1,inactive
15,COc1cccc(NC(CNS(=O)(=O)c2ccc(C)cc2)c2ccccc2)c1 (stereo not drawn),"inconclusive: 28.2 µM [inhibitor, single point]"
16,CCC12CN3CC(CC)(CN(C1)C3c1ccc(OCc3ccccc3)cc1)C2=O (stereo not drawn),"inconclusive: 7.08 µM [inhibitor, single point]"
17,CCCNC(=O)N(C1CCOCC1)C1CCN(C(=O)c2cccc(OC)c2)CC1,"inconclusive: 17.8 µM [inhibitor, partial curve, poor fit]"
18,O=C(NCCOc1ccccc1)c1nc2c(o1)CCN(Cc1c(F)cccc1F)CC2,inactive
19,CCc1ccc(N2CC(c3noc(-c4cc(OC)c(OC)c(OC)c4)n3)CC2=O)cc1 (stereo not drawn),"inconclusive: 3.98 µM [inhibitor, full curve, poor fit]"
20,NC(=O)COc1ccc(C(=O)N[C@@H]2CN(Cc3ccccn3)CCC[C@H]2O)cc1,inactive
21,O=C(O)C1(CC2CC2)CCCN(Cc2ncccn2)C1 (stereo not drawn),"inconclusive: 8.91 µM [inhibitor, single point]"
